In all, about 410,000 compounds went through this assay and about 6,400 (1.6%) were called active. Inconclusive results, whose numbers are uncertain, are shown with a selection of clear calls. Calls follow the shape of the dose curve; as a rule, active = well fitted inhibition curve with a large enough effect; inconclusive = small, poorly fitted or top-dose-only effect; inactive = no such curve, though single readings can be large or run the other way. No potency is given beside an inconclusive call; the fits are too rough.
Each compound was assayed against Glucagon-like peptide 1 receptor (Homo sapiens) (UniProt P43220) (assay: qHTS of GLP-1 Receptor Inverse Agonists (Inhibition Mode)). Conditions: HEK293 GLP-1R CRE-luciferase, luminescence, 24 h, GLP-1R form is constitutively active; series mostly up to 38.3 µM.
Chain of UniProt P43220 (P43220 whole entry, looked up): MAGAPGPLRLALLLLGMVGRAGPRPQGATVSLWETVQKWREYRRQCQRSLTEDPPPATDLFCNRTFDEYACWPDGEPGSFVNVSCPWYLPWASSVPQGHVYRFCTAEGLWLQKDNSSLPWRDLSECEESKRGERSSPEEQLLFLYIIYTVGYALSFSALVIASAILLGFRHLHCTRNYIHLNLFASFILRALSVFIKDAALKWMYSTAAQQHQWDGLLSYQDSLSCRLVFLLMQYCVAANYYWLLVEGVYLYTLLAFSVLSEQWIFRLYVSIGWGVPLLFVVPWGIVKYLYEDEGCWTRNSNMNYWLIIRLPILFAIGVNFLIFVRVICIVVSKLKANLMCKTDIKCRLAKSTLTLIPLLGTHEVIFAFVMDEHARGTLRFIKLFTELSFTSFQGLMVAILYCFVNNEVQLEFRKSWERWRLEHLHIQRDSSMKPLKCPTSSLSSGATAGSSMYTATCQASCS
Method in brief: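 Seeding at 200 cells/uL, 12 h culture, 24 hr compound treatment, then luciferase reagent and a luminescence read; cells are HEK293 stably expressing a constitutively active GLP-1R plus cAMP-responsive luciferase.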
Also: nearly all actives have a fitted effect of over 55% in size.
Potency is read from the fitted curve at half-maximal effect; tags tell the direction and shape of the fitted curve.

Row | SMILES | Potency
1 | COC(=O)[C@H](C(C)C)N(Cc1ccccc1)S(=O)(=O)CCNC1CCCC1 | inconclusive [inhibitor, single point]
2 | FC(F)(F)Oc1ccc(NC(=S)Nc2ccccc2N2CCOCC2)cc1 | inconclusive [inhibitor, single point]
3 | CCn1c(SCCOc2ccccc2F)nc2ccccc21 | inconclusive [inhibitor, single point]
4 | Cc1cc(/C=N/n2cnnc2)c(C)n1-c1ccc(OCc2ccc(Cl)cc2)cc1 | inactive
5 | COc1ccccc1C(=O)NC(=O)COC(=O)c1ccc(Br)o1 | inactive
6 | CCOc1ccccc1C(=O)Nc1ccc2c(c1)N(C)C(=O)c1ccccc1S2 | inconclusive [inhibitor, full curve, poor fit]
7 | O=C(NCC(c1ccco1)N1CCCC1)c1ccc(Cl)cc1 (stereo not drawn) | inconclusive [inhibitor, partial curve, poor fit]
8 | CCOC(=O)C1CCCN(C(=O)C2c3ccccc3Oc3ccccc32)C1 (stereo not drawn) | inconclusive [inhibitor, single point]
9 | O=C(NC1CCSC1=O)c1ccc(Oc2cccc(C(F)(F)F)c2)nc1 (stereo not drawn) | inconclusive [inhibitor, partial curve, poor fit]
10 | Cc1ccc(C(C)C)c(OCC(=O)N2CCC(c3nc4ccccc4o3)CC2)c1 | inconclusive [inhibitor, partial curve, poor fit]
11 | CSCCC(NS(=O)(=O)c1ccc(Cl)cc1)C(=O)OCc1c(Cl)cccc1Cl (stereo not drawn) | inconclusive [inhibitor, partial curve, poor fit]
12 | COc1ccccc1N1CCN(C(=O)c2cccc(C(=O)N3CCN(c4ccccc4OC)CC3)c2)CC1 | inconclusive [inhibitor, partial curve, poor fit]
13 | COCCCNC(=O)C1CCN(C(=O)Nc2ccc(Cl)cc2)CC1 | inconclusive [inhibitor, single point]
14 | CC(C)c1ccc(S(=O)(=O)/N=C2/C=C(Sc3ncn[nH]3)C(=O)c3ccccc32)cc1 | inconclusive [inhibitor, single point]
15 | CCOC(=O)c1cc(-c2ccc(C)cc2)n(CCC(=O)NCCN(C)C)c1C | inconclusive [inhibitor, single point]
16 | CN(Cc1ccccc1)C(=O)c1[nH]cnc1C(=O)Nc1cccc(Cl)c1 | inconclusive [inhibitor, single point]
17 | Cc1nc(NCCc2ccc(O)cc2)c2nnn(Cc3ccccc3)c2n1 | inconclusive [inhibitor, single point]
18 | O=C(CCSc1ccc(Cl)cc1)NC12CC3CC(CC(C3)C1)C2 | inconclusive [inhibitor, partial curve, poor fit]
19 | CC(C)CCNC(=O)C(=O)Nc1ccc2c(c1)N(S(=O)(=O)c1cccs1)CCC2 | inconclusive [inhibitor, partial curve, poor fit]

Row | SMILES | Potency
20 | Cc1ccc(Cn2ncc3c(N4CCN(c5ccc(C)cc5)CC4)ncnc32)cc1 | inconclusive [inhibitor, partial curve]
21 | OC(COc1ccccc1)Cn1c2ccccc2c2ccccc21 (stereo not drawn) | inconclusive [inhibitor, partial curve, poor fit]
22 | COc1ccc(C(=O)N/N=C/c2ccc(OC)c(COc3ccccc3)c2)cc1 | inconclusive [inhibitor, partial curve, poor fit]
23 | Cc1ccc(C)c(Oc2ccc(S(=O)(=O)N3CCN(C)CC3)cn2)c1 | inconclusive [inhibitor, single point]
24 | COc1ccc2oc(C(=O)OCC(=O)NCC3CCCO3)c(C)c2c1 (stereo not drawn) | inconclusive [inhibitor, single point]
25 | Cc1ccc2nc(N/N=C/c3ccccc3C#N)nc(-c3ccccc3)c2c1 | inconclusive [inhibitor, single point]
26 | OC(c1ccccc1)c1nc(/C=C/c2ccc(C(F)(F)F)cc2)cs1 (stereo not drawn) | inconclusive [inhibitor, single point]
27 | CCCCOc1ccc(C(=O)Nc2ccc(S(=O)(=O)Nc3cc(C)on3)cc2)cc1OC | inactive
28 | O=C(CCN1C(=O)COc2ccccc21)NCCN1CCN(c2ccccc2F)CC1 | inconclusive [inhibitor, partial curve, poor fit]
29 | Cn1c(=O)nc2n(-c3ccc(Cl)c(Cl)c3)c3cc(Cl)ccc3cc-2c1=O | inactive
30 | CC(=O)c1cn(CC(=O)NCc2ccc3c(c2)OCO3)c2ccccc12 | inactive
31 | C[C@@H]1CCCCO[C@H](CN(C)C(=O)Nc2ccc(F)cc2)[C@@H](C)CN([C@H](C)CO)C(=O)c2cc(N(C)C)ccc2O1 | inconclusive [inhibitor, single point]
32 | CCN(CC)CCn1c(NCc2nc3ccccc3n2Cc2ccccc2)nc2ccccc21 | inconclusive [inhibitor, partial curve, poor fit]
33 | O=C(Nc1c(C(=O)Nc2ccc(F)cc2)oc2ccccc12)c1ccccc1F | inactive
34 | CC(C)(C)C(=O)Nc1ccc(C(=O)Nc2cccc(Oc3ccc(C(=O)O)c(C(=O)O)c3)c2)cc1 | inactive
35 | O=C(Nc1ccc(Oc2ccccc2)cc1)c1ccc(Cn2c(=O)[nH]c3ccsc3c2=O)cc1 | inconclusive [inhibitor, partial curve, poor fit]
36 | CCN(c1ccccc1)S(=O)(=O)c1cccc(C(=O)NCC(c2ccco2)N2CCCCC2)c1 (stereo not drawn) | inconclusive [inhibitor, partial curve, poor fit]
37 | CC(=O)Nc1ccc(NC2CCCCC2NS(=O)(=O)c2ccc(Cl)cc2)cc1 (stereo not drawn) | inconclusive [inhibitor, partial curve, poor fit]
38 | CCOc1ccc(N(CC(=O)NC(C(C)C)C(C)C)S(=O)(=O)c2ccc(OC)c(OC)c2)cc1 | inconclusive [inhibitor, single point]
